# Whole data set: some 110,000 compounds, median “z-score” near -0.1, cut for the highest 2% near 2. Some of the results follow. The source made the active and inactive calls.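 How the source made its calls: active means z-score in the third read window above 3 or below -3; inactive means the rest.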
# Target: Metabotropic glutamate receptor 8 (Rattus norvegicus) (UniProt P70579)
# Assay: rat mGluR8 modulators via GIRK flux, primary screen, cell-based, thallium flux, HTS (AID 488969)
# Settings: HEK293 rat mGluR8, GIRK (G protein-gated inwardly rectifying potassium channel) thallium flux, FluoZin2; at 10 µM; stronger effect = higher value
# Chain of UniProt P70579 (P70579 whole entry, looked up): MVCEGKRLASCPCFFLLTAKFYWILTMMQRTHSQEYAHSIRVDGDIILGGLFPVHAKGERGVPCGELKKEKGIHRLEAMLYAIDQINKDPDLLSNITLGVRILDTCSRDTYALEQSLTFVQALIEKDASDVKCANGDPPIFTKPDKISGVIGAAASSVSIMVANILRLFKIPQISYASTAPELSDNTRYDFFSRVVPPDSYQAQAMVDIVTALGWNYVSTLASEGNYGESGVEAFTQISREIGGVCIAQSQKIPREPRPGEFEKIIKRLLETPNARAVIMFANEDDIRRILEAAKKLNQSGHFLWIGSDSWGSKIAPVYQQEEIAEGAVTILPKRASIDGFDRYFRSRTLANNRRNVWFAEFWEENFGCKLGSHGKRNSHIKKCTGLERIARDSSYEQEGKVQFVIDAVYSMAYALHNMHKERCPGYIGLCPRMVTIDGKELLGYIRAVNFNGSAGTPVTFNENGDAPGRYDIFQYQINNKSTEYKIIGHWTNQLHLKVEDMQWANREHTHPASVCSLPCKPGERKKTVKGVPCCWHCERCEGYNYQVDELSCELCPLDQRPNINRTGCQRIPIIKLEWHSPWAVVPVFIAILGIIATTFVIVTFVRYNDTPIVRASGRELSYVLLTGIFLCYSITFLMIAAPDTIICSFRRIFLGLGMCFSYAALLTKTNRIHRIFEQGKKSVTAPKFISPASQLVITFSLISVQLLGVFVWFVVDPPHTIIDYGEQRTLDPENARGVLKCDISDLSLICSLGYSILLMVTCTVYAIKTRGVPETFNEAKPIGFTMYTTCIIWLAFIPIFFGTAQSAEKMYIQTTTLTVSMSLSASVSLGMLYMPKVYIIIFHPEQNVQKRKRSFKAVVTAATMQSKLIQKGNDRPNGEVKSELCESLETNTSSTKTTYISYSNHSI
row,SMILES,z-score
1,CC(=O)OC1N=C(c2ccccc2)c2cc(C)ccc2NC1=O (configuration not stated),-0.00312
2,CN(C)P(=O)(C(Cl)=C(N1CCCCC1)N1CCCCC1)N(C)C,-1.19
3,C=CCn1c(O)c(C(CC)=NC2CC2)c(=O)[nH]c1=O,0.102
4,Cc1[nH]c2c(Cl)cccc2c1CCN,0.371
5,CN1CCN(c2nc3ccccn3c(=O)c2C=C2C(=O)N(C)C(=O)N(C)C2=O)CC1,-0.342
6,CCn1c(O)c(C=NCc2cccs2)c(=O)[nH]c1=O,0.34
7,CCOC(C(=O)OCCC[N+](C)(CC)CC)(c1ccccc1)c1ccccc1,0.315
8,O=C(O)CCn1cc(C=C2C(=O)NC(=O)NC2=O)c(-c2ccc(Br)cc2)n1,-0.399
9,CCOC(=O)c1cccc([P+](=O)O)c1,0.00569
10,Cc1cccc(-n2c(O)c(/C=N/N3CCOCC3)c(=O)[nH]c2=S)c1,0.213
11,COc1ccccc1N(CC(=O)NC1CCCC1)C(=O)c1cnn(C(C)C)c1,0.12
12,O=C(Cn1ncc2ccsc2c1=O)N1CCC2(CC1)OCCO2,0.0064
13,C=CCn1c(O)c(C(C)=Nc2ccc(NC(C)=O)cc2)c(=O)[nH]c1=O,0.205
14,CCCC12CN3CN(C1)CC(CCC)(C3)C2O (configuration not stated),0.0139
15,COC(=O)C(O)(c1ccc(NC(=S)NC(=O)c2ccc(Cl)cc2Cl)c(C)c1)C(F)(F)F (configuration not stated),1.19
16,CCN(CC)CCOC(=O)c1ccc(N=Cc2c(O)[nH]c(=O)[nH]c2=O)cc1,-0.19
17,CCC(=NCC1CCCO1)c1c(O)n(Cc2ccccc2)c(=O)[nH]c1=O (configuration not stated),-0.35
18,CC(=NCC1CCCO1)c1c(O)n(-c2ccc(Cl)cc2)c(=O)[nH]c1=O (configuration not stated),-1.18
19,CCCCn1c(O)c(C(C)=NCCCn2ccnc2)c(=O)[nH]c1=O,2.03
20,CCC(CC)N1CCN(C(=O)Cc2ccccc2)CC1,-1
21,CCOc1ccc(-n2c(O)c(C=Nc3ccc(N4CCOCC4)cc3)c(=O)[nH]c2=O)cc1,-0.315
22,CCOC(=O)Cn1cc([N+](=O)[O-])nc1[N+](=O)[O-],-0.0497
23,O=C1CCCC2=C1C(c1cccnc1)Nc1ccccc1N2 (configuration not stated),-0.306

row,SMILES,z-score
1,CCCCNc1ccncc1S(=O)(=O)NC(=O)NC(C)C,0.211
2,O=Cc1cn(Cc2ccc([N+](=O)[O-])cc2)c2ccccc12,-0.285
3,C=CCN1C(=O)NC(=O)/C(=C/c2cnc(SC)nc2)C1=O,-0.204
4,CC(C)CCOC(=O)c1c(N)n(CC2CCCO2)c2nc3ccccc3nc12 (configuration not stated),-0.606
5,CCc1c(C)nc(N)nc1N1N=C1SCC(N)=O,0.609
6,CCCOC(=O)c1c(N)n(Cc2cccs2)c2nc3ccccc3nc12,-0.325
7,N#CC1=C(N)Oc2c(c(=O)oc3ccccc23)C1c1ccncc1 (configuration not stated),-0.0723
8,CC1SC2(CN3CCC2CC3)NC1=O (configuration not stated),-0.0378
9,CCOc1ccc(/C=C2/C(=O)NC(=O)N(CCc3ccc(F)cc3)C2=O)cc1,-0.376
10,COCc1cc(C2SCC(=O)Nc3c2c(=O)[nH]n3C(C)C)ccc1OC (configuration not stated),-0.915
11,CCSc1nnc(C(N)Cc2ccccc2)o1 (configuration not stated),0.136
12,CC(C)NC(=O)Cn1cc(C(=O)c2ccccc2F)c2ccccc21,-0.23
13,Cc1sc2ncn(CC(=O)NCCCC(=O)N3CCC4(CC3)OCCO4)c(=O)c2c1C,-0.142
14,Cc1nn(Cc2ccccc2)c(C)c1C(=O)OCC(=O)NCc1ccco1,-0.108
15,Cn1c(O)c(C(c2ccccn2)c2c(O)n(C)c(=S)[nH]c2=O)c(=O)[nH]c1=S,-0.0951
16,CN1C(=O)C(=Cc2ccccc2OCc2ccccc2Cl)C(=O)N(C)C1=O,-0.259
17,Cc1cc(OC(=O)c2ccco2)c2c3c(c(=O)oc2c1)CCCC3,1.05
18,Cc1ccc(-c2nc(CS(=O)CC(=O)N3CCC4(CC3)OCCO4)c(C)o2)cc1 (configuration not stated),1.52
19,CCOP(=O)(OCC)C(C)(C)NC(=O)C(Cl)(Cl)Cl,0.176
20,COc1cccc(C2CC3C(=O)C=CC2N3Cc2ccccc2)c1 (configuration not stated),-0.129
21,CC(Cc1ccccc1)[n+]1cc(/N=C(\[O-])Nc2ccccc2)on1 (configuration not stated),0.153
22,CCCC(C)C1C(C#N)=C(N)Oc2c1c(=O)oc1ccccc21 (configuration not stated),0.0029
23,CC(C)CNC(=O)c1c(N)n(Cc2ccc3c(c2)OCO3)c2nc3ccccc3nc12,0.129

row,SMILES,z-score
1,Cc1ccc2ccccc2c1NC(=O)CNC1CCCCC1,-0.297
2,Cc1nn(CCC#N)c2c1P(=S)(N1CCCC1)OC(c1ccc(F)cc1)=N2 (configuration not stated),-1.71
3,CCCCc1nc2ccccc2c(=O)n1-c1ccc(Cl)cc1[N+](=O)[O-],-0.107
4,Cn1c(O)c(C(=N)COc2cccc(Cl)c2)c(=O)n(C)c1=O,0.514
5,O=C1CN=C(c2ccc(Br)cc2)c2oc3ccccc3c2N1,-0.00811
6,Cc1ccc(N2C(=O)/C(=C/N3CCN(C(=O)c4ccco4)CC3)C(=O)NC2=S)cc1C,-0.105
7,O=C(Cc1ccc(Br)cc1)N1CCN(Cc2ccccc2)CC1,0.0955
8,CC(=O)NC1CC2CCC(C1)N2 (configuration not stated),-0.344
9,CCCCOP(=O)(CN1CCOCC1)OCCCC,-0.167
10,CC1=CC(=C2C(=O)NC(=O)NC2=O)C=C(C(F)(F)F)N1C(C)C,0.0509
11,Cc1nc2cc(-c3ccc(Cl)cc3)nn2c(C)c1CCC(=O)N1CCC2(CC1)OCCO2,0.0371
12,CC1=CC(=C2C(=O)NC(=S)NC2=O)C=C(C(F)(F)F)N1C,-0.0498
13,CCN(CC)CCCNC(=O)c1c(O)c2ccccc2n(Cc2ccccc2)c1=O,0.385
14,O=[N+]([O-])c1ccc(C2[C@H]3C(c4ccccc4)=NC4(CCCC4)N23)cc1 (some centres not stated),-0.693
15,Cn1nc(N)c2c1N=P(N1CCOCC1)(N1CCOCC1)N=C2c1ccccc1,0.605
16,CCOC(=O)c1nc2ccccc2c(=O)n1-c1ccc(C)cc1,-0.15
17,CCOCCN1CCC(OC(C)=O)C(C)C1 (configuration not stated),0.256
18,COc1ccc(C(=O)C(C)(C)NO)cc1,0.0653
19,COc1cc2c(C(=O)N3CCN(C)CC3)c(C)n(C)c2cc1Br,0.0254
20,Cc1nc2ccc(Cl)cc2c(-c2ccccc2)c1C(=O)O,-0.396
21,O=[N+]([O-])c1ccc(N2CCNCC2)cc1NCC1CCCO1 (configuration not stated),0.0282
22,COCCn1c(-c2ccccc2)cc(C(=O)O)c1C,2.06
23,N=C1c2ccccc2CN1CC(=O)c1ccccc1,-0.0986

row,SMILES,z-score
1,Nc1c(C(=O)NCc2ccco2)c2nc3ccccc3nc2n1CCN1CCOCC1,-0.573
2,CC1(C)C(c2ccccc2)=NC(c2cccnc2)N1O (configuration not stated),0.423
3,O=C1CC(c2ccccc2)CC(O)=C1C=NCCN1CCN(C(=O)Cc2ccccc2)CC1 (configuration not stated),-0.192
4,CCC(=O)OC1(c2cccc(C)c2)CC(C)N(C)CC1C (configuration not stated),0.852
5,Cn1c(C(=O)O)c(CC(=O)N2CCN(Cc3ccccc3)CC2)c2ccccc21,0.684
6,CCC1(CC)C(=O)N(Cc2ccccc2)C(=O)N(Cc2ccccc2)C1=O,0.0964
7,CCC(C)c1ccc(N2C(=O)NC(=O)/C(=C/c3cccn3CCOc3ccc(C)cc3)C2=O)cc1 (configuration not stated),0.272
8,O=C1CSC2(CN3CCC2CC3)N1 (configuration not stated),-0.155
9,Cc1ccc(S(=O)(=O)N2CC3CC(C2)c2cccc(=O)n2C3)cc1 (configuration not stated),-0.165
10,O=S(=O)(c1ccccc1)N1CCCCC1c1cccnc1 (configuration not stated),0.284
11,CN1c2ccc([N+](=O)[O-])cc2CC2(C(=O)NC(=O)N(c3ccc(Br)cc3)C2=O)C1c1ccccc1 (configuration not stated),-1.17
12,Fc1ccc(NC2=NCCS2)cc1Cl,active: 4.82
13,C=CCn1c(O)c(C(CC)=NCc2cc(OC)cc(OC)c2)c(=O)[nH]c1=O,-1.69
14,CCc1ccc(-n2c(O)c(/C=N/N3CCCCC3c3cccnc3)c(=O)[nH]c2=O)cc1 (configuration not stated),-0.118
15,Cc1cccc2c1=NC(=O)/C(=C/c1c(O)[nH]c(=O)[nH]c1=O)C=2,-0.874
16,CCCC1COC(Cn2cncn2)(c2ccc(Cl)cc2Cl)O1 (configuration not stated),-0.364
17,COC(=O)C(O)(c1cn(C)c2ccccc12)C(F)(F)F (configuration not stated),-0.105
18,O=C(c1ccco1)c1cn(Cc2ccccc2Cl)c2ccccc12,-0.465
19,CN1CCC(N(C)c2nc(-c3ccc([N+](=O)[O-])cc3)nc3ccccc23)CC1,0.562
20,CCCCOc1ccc(CN2CCN(CC)CC2)cc1,0.446
21,CC1(C)CN=C(Nc2ccc(F)c(F)c2)S1,-0.117
22,CC(C)Sc1nnc([C@@H](N)Cc2ccccc2)o1,-0.379
23,O=C1C2CCCN2C(c2cccnc2)N1c1ccc(Cl)c(Cl)c1 (configuration not stated),-0.366

row,SMILES,z-score
1,CN(C)CC#CCOCCOCCC#N,0.0894
2,O=[N+]([O-])c1ccc(N2CCNCC2)cc1Sc1ccccn1,0.0114
3,CC1(C)C(C(=O)NCc2ccco2)C1(C)C,-0.104
4,Clc1cnc(Oc2ccc(Oc3ncc(Cl)cc3Cl)cc2)c(Cl)c1,0.509
5,CCOC(=O)c1c(/N=C/c2c(O)n(-c3ccccc3F)c(=S)[nH]c2=O)sc2c1CCCC2,-0.0576
6,CCCCn1c(O)c(C(CC)=NCc2ccc3c(c2)OCO3)c(=O)[nH]c1=O,-0.68
7,C=CCn1c(O)c(C(CC)=NC(C)c2ccccc2)c(=O)[nH]c1=O (configuration not stated),-0.246
8,COc1ccc(-c2nc(CS(=O)CC(=O)N3CCC4(CC3)OCCO4)c(C)o2)cc1 (configuration not stated),-0.23
9,COc1ccc(CN2CCN(c3ccccc3F)CC2)cc1O,-0.179
10,O=[N+]([O-])c1ccc(N2CCNCC2)cc1NC1CC1,-0.0698
11,O=C(NC(Oc1ccccc1)C(Cl)(Cl)Cl)c1ccccc1 (configuration not stated),-0.149
12,CC(C)CCn1c(=O)c(C(=O)Nc2ccccc2S(N)(=O)=O)c(O)c2ccccc21,2
13,C/C(=N\N1CCCCC1c1cccnc1)c1c(O)n(C2CCCCC2)c(=S)[nH]c1=O (configuration not stated),0.874
14,Cc1cc(C(=O)N2CCC3(CC2)OCCO3)cs1,0.652
15,O=C(COc1ccc(Cl)cc1Cl)N1CCN(C/C=C/c2ccccc2)CC1,0.12
16,COc1ccc(OC)c(CC(=O)O)c1,0.215
17,Fc1ccc(CCNCc2ccc(Br)cc2)cc1,0.723
18,CCOC(=O)C(=CNc1ccc(C(O)(C(=O)OCC)C(F)(F)F)cc1C)C(=O)OCC (configuration not stated),-0.709
19,O=C(c1ccccc1F)c1cn(CC(=O)N2CCOCC2)c2ccccc12,-0.273
20,CC1CN=C(NCc2ccncc2)S1 (configuration not stated),0.456

# Reference: PubChem BioAssay AID488969 (Vanderbilt High Throughput Screening Facility, 2010)
